# According to PubChem BioAssay (NCATS):
# Several values for one entry are separate records, joined by “and”; a condition that tells them apart may be missing. Equal entries are not always repeated. This list was built around the results that the source calls inconclusive (neither active nor inactive); the mix of calls is not that of the screen. For some of these results: Potencies beside an inconclusive call are fits to weak or partial responses and may not hold up. For some of these results: “Side channel” marks fits to a control or component signal instead of the main read-out. Activity calls are given as the source filed them. Unless noted, calls follow the shape of the dose curve; as a rule, active = well fitted curve in the direction sought with a large enough effect; inconclusive = small, poorly fitted or top-dose-only effect, or another doubt; inactive = no such curve, though single readings can be large; an effect the other way counts as inactive or inconclusive.
# How the values were obtained:
# [1] = qHTS assay for small molecule agonists of the antioxidant response element (ARE) signaling pathway measured by Nrf2-dependant transcriptional activity - cell viability counter screen (AID 720653; active = well fitted curve in the direction sought with a large enough effect in the repeat runs; inconclusive = weak or mixed curves; inactive = no such curve, though single readings can be large; an effect the other way counts as inactive or inconclusive); conditions: ARE-bla HepG2 viability, CellTiter-Glo ATP luminescence, 16 h; max response: stronger effect = lower value
# Method in brief: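 ARE-bla HepG2 cells (2,000/well) rested 5 hrs at 37C/5% CO2, then exposed to compounds in DMSO for 16 hrs. Viability was read in the same wells as intracellular ATP by luminescence, 30 min at room temperature after reagent addition.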
# [2] = qHTS assay for cell viability of HEK293 cells (AID 743288); conditions: ATP luminescence (CellTiter-Glo), 18 h; also: nearly all actives have a fitted effect of over 50% in size
# Method in brief: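 ATP luminescence (CellTiter-Glo) reports metabolically competent cell number after parental HEK293 cells, 2,000/well, were treated with DMSO-dissolved compounds for 18 h at 37 C; reagent incubation 30 min, room temperature.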
# [3] = qHTS assay to identify small molecule inhibitors of chordoma cells - UCH-2 (AID 1259356)
# [4] = Identifying Small Molecule Inhibitors of Pancreatic Cancer Stem Cells (A2780, Spheroid) (AID 1259357); conditions: Potency: A2780 spheroid viability unless noted; viability (percent of control): at 46.1 µM (top of the series) unless noted;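 also: spheroids pre-formed over 14 days in stem cell medium on hydrogel; compound exposure lasted 48 h before the ATP luminescence read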
# Method in brief: (§1)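 Adherent (2D) versus sphere (3D) formats; spheres generated 14 d in SCM beforehand. Compound transferred by pin tool after 4 h, 48 h incubation, CellTiter-Glo endpoint.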
# [5] = Identifying Small Molecule Inhibitors of Pancreatic Cancer Stem Cells (SN12C, Adherent) (AID 1259358);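 also: cell survival measured after 48 h of compound exposure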
# Method in brief: (§2)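 Viability is scored by CellTiter-Glo luminescence 48 h after dosing, expressed as percent activity against vehicle and no-cell references. Spheroid formats rely on cells cultured 14 days in stem cell media beforehand.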
# [6] = Identifying Small Molecule Inhibitors of Pancreatic Cancer Stem Cells (Panc1, Spheroid) (AID 1259359); conditions: Panc1 spheroid cancer stem cell viability; viability, % of control: at 46.1 µM (top of the series);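 also: compound exposure lasted 48 h before reading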
# Method in brief: as §2
# [7] = Identifying Small Molecule Inhibitors of Pancreatic Cancer Stem Cells (SN12C, Spheroid) (AID 1259360); conditions: Potency: SN12C spheroid viability
# Method in brief: as §1
# [8] = P-glycoprotein substrates identified in KB-8-5-11 adenocarcinoma cell line, qHTS therapeutic library screen (AID 1346987); also: nearly all actives have a fitted effect of over 65% in size
# Method in brief: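 Human cervical adenocarcinoma KB-8-5-11 cells, selected in colchicine to over-express P-gp and assayed without it, were exposed for 72 h to titrated compounds. An ATP-based luminescent viability signal gave AC50.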
# [9] = NS1 protein of Zika virus - qHTS assay to identify small molecule inhibitors in human HEK 293 cells (AID 1347053); also: nearly all actives have a fitted effect of over 55% in size
# Method in brief: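 Readout was TR-FRET using paired anti-NS1 antibodies after 24 h infection of HEK 293 cells with ZIKV MR766 (MOI = 0.5). Compound preceded virus by 1 h; reduced signal reflects lower NS1 expression.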
# [10] = qHTS assay for cell viability of the p53RE-bla HCT-116 cell line (AID 743292); also: nearly all actives have a fitted effect of over 55% in size
# Method in brief: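 CellSensor p53RE-bla HCT-116 cells (4,000/well) pre-incubated 5 h at 37 C, then exposed to compounds in DMSO for 16 h at 37 C. Viability read as ATP content by CellTiter-Glo luminescence after 30 min at room temperature.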
# [11] = qHTS assay to identify small molecule inhibitors of chordoma cells - UCH-1 (AID 1259355); also: nearly all actives have a fitted effect of over 55% in size
# Method in brief: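 A 48hr growth-inhibition format: each drug tested at 15 concentrations together with added auranofin, camptothecin, doxorubicin, rubitecan and topotecan, with cell viability quantified as CellTiter-Glo luminescence.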
# [12] = qHTS Assay for Identifying Gametocytocidal Compounds (AID 743244);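 as to max response: % is scaled to controls: 0 for no effect and ±100 for the full control effect; actives lower the fluorescent signal which means gametocytes are killed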; conditions: P. falciparum 3D7 stage III-V gametocytes, alamarBlue, 72 h; max response: stronger effect = lower value
# Method in brief: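 Using 20,000 stage III–V 3D7 gametocytes per well, compounds were incubated 72 h under 37 °C/5% CO2. Viability was then assessed by 24 h alamarBlue reduction, measured fluorometrically at 525/598 nm.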
# [13] = molecular target: T1, Tyrosine-protein phosphatase non-receptor type substrate 1 (Homo sapiens) + Leukocyte surface antigen CD47 (Homo sapiens) (UniProt P78324+Q08722); experiment: CD47-SIRPalpha protein protein interaction - HTRF assay qHTS validation (AID 1347058; active = well fitted curve in the direction sought with a large enough effect in the signal ratio, not every such curve was filed as active; inconclusive = small, poorly fitted or top-dose-only effect, or effect the other way, or a change in a side signal; inactive = no such curve, though single readings can be large or run the other way; the % refers to the signal ratio)
# T1 sequence (P78324 whole entry, looked up, the tested form may be a part): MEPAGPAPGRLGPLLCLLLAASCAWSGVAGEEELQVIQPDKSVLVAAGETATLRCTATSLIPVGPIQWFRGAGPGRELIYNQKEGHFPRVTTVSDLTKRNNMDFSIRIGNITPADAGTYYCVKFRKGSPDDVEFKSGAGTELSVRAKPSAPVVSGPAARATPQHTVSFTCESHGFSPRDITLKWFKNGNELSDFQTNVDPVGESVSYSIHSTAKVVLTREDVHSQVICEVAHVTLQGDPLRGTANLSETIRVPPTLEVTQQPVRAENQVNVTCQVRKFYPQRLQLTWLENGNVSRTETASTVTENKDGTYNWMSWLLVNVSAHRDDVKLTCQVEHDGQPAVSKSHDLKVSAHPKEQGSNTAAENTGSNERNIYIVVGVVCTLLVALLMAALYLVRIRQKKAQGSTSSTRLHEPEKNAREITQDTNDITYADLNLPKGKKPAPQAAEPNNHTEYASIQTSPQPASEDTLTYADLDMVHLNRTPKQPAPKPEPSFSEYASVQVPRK
# T1 sequence (Q08722 whole entry, looked up, the tested form may be a part): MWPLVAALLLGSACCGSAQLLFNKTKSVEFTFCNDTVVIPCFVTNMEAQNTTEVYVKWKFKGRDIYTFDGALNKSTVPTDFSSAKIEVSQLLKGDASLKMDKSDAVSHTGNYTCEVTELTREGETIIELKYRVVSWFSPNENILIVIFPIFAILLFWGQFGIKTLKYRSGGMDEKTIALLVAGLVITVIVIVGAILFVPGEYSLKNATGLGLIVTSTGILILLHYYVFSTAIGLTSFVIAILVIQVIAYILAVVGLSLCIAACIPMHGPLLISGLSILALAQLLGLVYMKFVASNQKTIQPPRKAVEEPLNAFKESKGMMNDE
# Method in brief: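 Soluble extracellular domains (6His-CD47, Avi-tag-biotinylated SIRPalpha) in PBS pH 7.4 with 0.05% IGEPAL CA-630. Compounds were preincubated 30 min at RT with CD47 and anti-His-Eu, then SIRPalpha and SAV-XL665 were added. TR-FRET 665/615 ratio.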
# [14] = molecular target: T1, Tyrosine-protein phosphatase non-receptor type substrate 1 (Homo sapiens) + Leukocyte surface antigen CD47 (Homo sapiens); experiment: CD47-SIRPalpha protein protein interaction - LANCE assay qHTS validation (AID 1347057; active = well fitted curve in the direction sought with a large enough effect in the signal ratio, with a control signal flat, not every such curve was filed as active; inconclusive = small, poorly fitted or top-dose-only effect, or effect the other way, or a change in a side signal; inactive = no such curve, though single readings can be large or run the other way; the % refers to the signal ratio)
# Method in brief: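 Inhibition of soluble CD47/SIRPalpha ectodomain association by titrated compounds, measured as 665/615 nm time-resolved FRET ratio after sequential 30 min room-temperature incubations.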
# Potency is read from the fitted curve at half-maximal effect; tags tell the direction and shape of the fitted curve.
compound,measurement,setting,value
COc1cccc2c1C(=O)c1c(O)c3c(c(O)c1C2=O)C[C@@](O)(C(=O)CO)C[C@@H]3O[C@H]1C[C@H](N)[C@H](O)[C@H](C)O1,Potency,[1],"inconclusive: 562 nM [cytotoxic, full curve, poor fit] and inconclusive: 1.26 µM [cytotoxic, full curve, poor fit]"
same,Potency,[2],"inconclusive: 1.12 µM [cytotoxic, full curve] and inconclusive: 2.51 µM [cytotoxic, full curve]"
same,Potency,[3],"inconclusive: 0.326 µM [cytotoxic, full curve, poor fit]"
same,Potency,[4],"inconclusive: 1.66 µM [cytotoxic, full curve]"
same,Potency,[5],active: 3.32 µM
same,Potency,[6],active: 5.9 µM
same,Potency,[7],active: 18.7 µM
same,Potency,[8],"inconclusive: 13 µM [inhibitor, partial curve, poor fit]"
same,Potency,[9],"inconclusive: 1.12 µM [inhibitor, full curve, poor fit]"
O=CCCCC=O,Potency,[2],"inconclusive: 39.8 µM [cytotoxic, partial curve, poor fit]"
same,Potency,[10],"inconclusive: 35.5 µM [cytotoxic, partial curve]"
same,Potency,[11],"inconclusive: 35.5 µM [cytotoxic, single point]"
CC(=O)OCC1=C(C(=O)O)N2C(=O)[C@@H](NC(=O)Cc3ccccc3)[C@H]2SC1,Potency,[3],inactive
OCC(S)CS (stereo unspecified),Potency,[12],active: 3.98 µM
same,Potency,[11],"inconclusive: 5.01 µM [cytotoxic, partial curve, poor fit]"
O=C1NS(=O)(=O)c2ccccc21,Potency,[10],inactive
same,Potency,[11],inactive
C=C(CC)C(=O)c1ccc(OCC(=O)O)c(Cl)c1Cl,Potency,[12],"inconclusive: 35.5 µM [inhibitor, single point]"
same,Potency,[11],"inconclusive: 35.5 µM [cytotoxic, partial curve, poor fit]"
CC(=O)c1ccc2c(c1)N(CCCN1CCC(CCO)CC1)c1ccccc1S2,Potency,[3],"inconclusive: 15.6 µM [cytotoxic, single point]"
same,Potency,[8],inactive
CC(=O)OCC(=O)[C@@]12OC3(CCCC3)O[C@@H]1C[C@H]1[C@@H]3CCC4=CC(=O)C=C[C@]4(C)[C@@]3(F)[C@@H](O)C[C@@]12C,Potency,[12],"inconclusive: 11.2 µM [inhibitor, single point]"
same,Potency,[11],"inconclusive: 0.002 µM [cytotoxic, full curve, poor fit]"
CC(=O)Oc1c(C)cc(OCC(O)CNC(C)C)c(C)c1C (stereo unspecified),Potency,[12],active: 15.8 µM
same,Potency,[11],"inconclusive: 22.4 µM [cytotoxic, partial curve, poor fit]"
NC(=O)n1c(O)c(C(=O)c2cccs2)c2cc(Cl)ccc21,Potency,[3],inactive
CC(C)(C)CC(C)(C)c1ccc(OCCOCC[N+](C)(C)Cc2ccccc2)cc1,Potency,[12],active: 8.91 µM
same,Potency,[2],"inconclusive: 39.8 µM [cytotoxic, partial curve] and inconclusive: 50.1 µM [cytotoxic, partial curve, poor fit]"
same,Potency,[10],"inconclusive: 70.8 µM [cytotoxic, single point]"
same,Potency,[11],"inconclusive: 31.6 µM [cytotoxic, single point]"
CN(C(=O)CCCOc1ccc2[nH]c(=O)ccc2c1)C1CCCCC1,Potency,[3],inactive
same,Potency,[8],"inconclusive: 29.1 µM [inhibitor, single point]"
same,Potency,[13],inactive
CC(=O)Oc1ccc(C(c2ccc(OC(C)=O)cc2)c2ccccn2)cc1,Potency,[10],"inconclusive: 3.16 µM [cytotoxic, partial curve, poor fit]"
same,Potency,[11],"inconclusive: 3.55 µM [cytotoxic, full curve, poor fit]"
CC(=O)N(O)CCCCCNC(=O)CCC(=O)N(O)CCCCCNC(=O)CCC(=O)N(O)CCCCCN,max response,[12],inactive: 17.5%
same,Potency,[11],"inconclusive: 0.251 µM [cytotoxic, full curve, poor fit]"
CCN(CC)CCNC(=O)c1c(C)[nH]c(/C=C2\C(=O)Nc3ccc(F)cc32)c1C,Potency,[3],"inconclusive: 41.1 µM [cytotoxic, single point]"
same,Potency,[8],"inconclusive: 14.6 µM [inhibitor, partial curve, poor fit]"
same,Potency,[9],"inconclusive: 35.5 µM [inhibitor, single point]"
same,Potency,[14],"inconclusive: 10.4 µM [side channel, falling, partial curve]"
same,Potency,[13],"inconclusive: 5.85 µM [side channel, falling, partial curve]"
C[N+]1(C)CCCC(OC(=O)C(O)(c2ccccc2)c2ccccc2)C1 (stereo unspecified),max response,[12],inactive: 8.34%
same,Potency,[11],inactive
CCCCOc1ccc(C(=O)CCN2CCCCC2)cc1,Potency,[3],"inconclusive: 6.98 µM [cytotoxic, partial curve, poor fit]"
same,Potency,[8],"inconclusive: 14 µM [inhibitor, partial curve, poor fit]"
